Experimental data as given in PubChem BioAssay (NCATS).
Inconclusive results are not listed. The call rests on the fitted dose curve. Some structures have more than one record in an assay (separate samples or runs), and their calls can disagree. A number of entries come with more than one value. They are shown here; other results are not. The source may hold further records. Values that stand side by side are repeated measurements (runs, samples, wells, individuals or studies). What stands in brackets tells the records apart. Letters hold for one entry only.

molecular target: Estrogen receptor (Homo sapiens) (UniProt P03372); test: qHTS assay for small molecule agonists of estrogen receptor alpha signaling (AID 588514); settings: ER-alpha-UAS-bla HEK293, beta-lactamase ratio, 18 h; series mostly up to 76.8 µM; further: nearly all actives have a fitted effect of over 70% in size
Sequence of UniProt P03372 (P03372 whole entry, looked up): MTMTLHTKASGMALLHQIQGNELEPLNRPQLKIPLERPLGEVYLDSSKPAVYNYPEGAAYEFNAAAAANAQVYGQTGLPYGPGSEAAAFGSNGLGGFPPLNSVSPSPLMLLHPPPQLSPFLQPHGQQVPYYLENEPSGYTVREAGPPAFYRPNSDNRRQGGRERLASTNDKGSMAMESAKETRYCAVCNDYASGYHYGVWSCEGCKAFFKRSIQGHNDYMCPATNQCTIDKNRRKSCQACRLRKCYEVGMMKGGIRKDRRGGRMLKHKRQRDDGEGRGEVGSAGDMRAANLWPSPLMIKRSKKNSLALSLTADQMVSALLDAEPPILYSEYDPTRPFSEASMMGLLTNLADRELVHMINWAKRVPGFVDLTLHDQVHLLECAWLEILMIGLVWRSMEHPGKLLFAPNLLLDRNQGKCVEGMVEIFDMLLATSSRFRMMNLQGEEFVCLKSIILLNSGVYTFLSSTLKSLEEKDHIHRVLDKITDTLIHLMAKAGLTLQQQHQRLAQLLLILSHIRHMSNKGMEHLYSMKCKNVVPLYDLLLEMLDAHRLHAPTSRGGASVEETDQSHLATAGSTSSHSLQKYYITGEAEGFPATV
How it was run: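 Reporter-gene assay. […] controls beta-lactamase in HEK 293 GripTite cells; after 18 hrs with compound, CCF4 substrate is added for 2 hrs and fluorescence is read.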
Potency means the concentration at half of the fitted maximal effect.

SMILES	Potency
CC(C)(OO)c1ccccc1	inactive [sample A] and active: 12.6 µM [sample B]
CCCCCCCCCc1ccc(O)cc1	active: 3.98 µM [sample A] and inactive [sample B]
CCc1cccc(CC)c1N(COC)C(=O)CCl	active: 158 nM [sample A] and inactive [sample B]
CCOCN(C(=O)CCl)c1c(C)cccc1CC	active: 708 nM [sample A] and inactive [sample B]
C=CC(N)=O	inactive [sample A] and active: 15.8 µM [sample B] and inactive [sample C]
